In article PMC12136788 one finds binding signal data, which are given here for 22 molecules.

The list shows a part of the results.

The chains are these.
T1: UNK ZnF1-3 (human, UniProt Q9C0B0 31-174)
T1 sequence: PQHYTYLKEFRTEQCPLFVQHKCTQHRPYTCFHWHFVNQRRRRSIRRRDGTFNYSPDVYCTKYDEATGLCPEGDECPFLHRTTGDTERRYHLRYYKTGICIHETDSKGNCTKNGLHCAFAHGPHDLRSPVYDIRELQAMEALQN

B1: 139362894_139366476_3788_CDS_ENSG00000148396_ENST00000313050|human|control|control (ssRNA)
RNA: GGGAGUUCUACAGUCCGACGAUCGCUUGCAUAGUAAUCGCUCUGACUGCUCCAUCCACUUUUGGAACUAUAGUAUCCUUCAGGAUAUCCUUGCCUGGGAGGUGGCCGUUCCGAGGAGUGGCUGGCUCGGGAGCUGGGCCGCUCCAACAGAGGAUUGAGCAUCA
B2: chr1:224553637:224553638:+_ENSG00000143771_ENST00000366856|hu_mus|FALSE|FALSE (ssRNA)
RNA: GGGAGUUCUACAGUCCGACGAUCCCUAUAUAUAUUCCACGUGGCGACAGGUAAGUUGAGAAGGAAGAUGAACCAGUGCAGGGAGACAAGCAUCAGCACAGUGACAAUGGUGUGGCCGACCAACUCCGGGAUCACCCACUUGUUCAACAGAGGAUUGAGCAUCA
B3: chr12:3252685:3252686:-_ENSMUSG00000020671_ENSMUST00000021001|perfect_dup|motif|central (ssRNA)
RNA: GGGAGUUCUACAGUCCGACGAUCUAACGUGAGGAACGCCUUUUCGAUGUUUAUAUUUGCUUUUGCACUAGUCUCAAAAAACCGGAUACCAUGCUCCCUUGCAAUCUGUUCUCCUUUUCCUUUAGGUACAACUCUUUUGUCGUCCAACAGAGGAUUGAGCAUCA
B4: chr16:94651144:94651145:+_ENSMUSG00000040785_ENSMUST00000117648|mus_hu|mus_mus_mus_hu_True|8_48 (ssRNA)
RNA: GGGAGUUCUACAGUCCGACGAUCAUUUUCUUGAAUCAAGUGGCGAAUAACAUAGUCCACUGCUUCAUUUAGAAAAUUUCUGCUAGAAAAGCAUGUUGUAUAGUCUUCUGUGCUCAAAACUUUCCAAGAGAGCAGCUCUUUGAGCAACAGAGGAUUGAGCAUCA
B5: 77926472_77926592_980_CDS_ENSG00000167291_ENST00000310924|human|control|control (ssRNA)
RNA: GGGAGUUCUACAGUCCGACGAUCGGAGCGCAUGUGGCCCAGGUCCACGCGGAACACGCCGCAAAUCUGCUCCAGGGCGCACACCCGCUGCGGCUCGUCCCAGCGUGGGGUCUGCAGGAGGCCGUUGCUGUCCGGGAACCGCAGCAACAGAGGAUUGAGCAUCA
B6: chr21:44329077:44329078:+_ENSG00000160194_ENST00000354250|hu_hu|FALSE|FALSE (ssRNA)
RNA: GGGAGUUCUACAGUCCGACGAUCCUCCCGGCCUGAGGAGGGCUGAGGCAUCCUGAAUUUUGAGAGUUCGAGGUUGAGGUCUAAGAAGGUGUACGUGCUGUAGUCAUGAUGCUGCAGGUUCUUGUAGGUAGUGUUGUCAAACGGCAACAGAGGAUUGAGCAUCA
B7: chr4:140556289:140556290:+_ENSMUSG00000036622_ENSMUST00000037055|mus_mus|mus_mus_mus_hu_False|18_48 (ssRNA)
RNA: GGGAGUUCUACAGUCCGACGAUCGAUGGAGCUCACCAGGCCCCCUUUUGCCGUGCAGAACCCUGUGCGGGUCACCACUGCCAGGACACGGGGUCCCACAUAGGCCCGGGCCUGCAAAAUGAGGGUGCCGCAGAAGAGUGUGUGCAACAGAGGAUUGAGCAUCA
B8: chr14:45963330:45963331:+_ENSMUSG00000021832_ENSMUST00000022380|perfect_dup|motif|central (ssRNA)
RNA: GGGAGUUCUACAGUCCGACGAUCGAUUUUCAGUAUGUCUAAUCUUGCUUGUUCAUUUGGCAAAUCAAUAUGUAUUUUUCGGUCGGAUCUUCCUGGACGCAGCAAAGCAGGAUCCAGUGUAUCUGGUCUGUUUGUAGCCAUGAUCAACAGAGGAUUGAGCAUCA
B9: chr11:77340908:77340909:-_ENSG00000074201_ENST00000525064|hu_hu|hu_hu_hu_mus_True|98_108 (ssRNA)
RNA: GGGAGUUCUACAGUCCGACGAUCGUUUCGGUCCCUGGAUAAUGCAUGUAAACUAAUGGUGGGGUAUUCCAGUGAGAAUCCUAAUCCCGAACCAUCUAACCAGGACAGGCGGCUCUCCGCGAUGUAAAGCGUGCCGGUGCCGAGCAACAGAGGAUUGAGCAUCA
B10: chr2:179515052:179515053:+_ENSMUSG00000000305_ENSMUST00000000314|mus_hu|mus_mus_mus_hu_False|68_98 (ssRNA)
RNA: GGGAGUUCUACAGUCCGACGAUCGCUGUCCCAUGCAGUGACGGUAAACGCCACCUGCUCGGAGGGGAUCUUCAACUCCCGGGUGGCGAAGACUGUCCCAUCUGCCCCAACUUUGAAGUCCAUGCUGUUGGUCUCAUAUUGUGUCAACAGAGGAUUGAGCAUCA
B11: chr10:89103549:89103550:-_ENSMUSG00000069539_ENSMUST00000105294|mus_hu|FALSE|FALSE (ssRNA)
RNA: GGGAGUUCUACAGUCCGACGAUCAUCUGUGGGUCUUUGUUGGGUCUGCUUUGCACCAGCAGGAGGAACACUCAAAGCAUUGAAGUUUGGCAAAGUGGGAGGUGUUCCCAGAGUCAUCUUGGUCACUCCAACUGUGCUUGGACUCAACAGAGGAUUGAGCAUCA
B12: chr7:151048522:151048523:+_ENSG00000013374_ENST00000566856|hu_mus|hu_hu_hu_mus_True|18_18 (ssRNA)
RNA: GGGAGUUCUACAGUCCGACGAUCCUGUUUCUUAUUUAUUACGAUCUUGAUGUAAUUUUCUUGAAAUCCGAAAGUUUCAGCUAUUUGACACCUCAGGUCUCUACCAGUGACAUGCAAUCGGGUCUCCAACAAGCUUUUCUUAUCCAACAGAGGAUUGAGCAUCA
B13: chr7:4964383:4964384:-_ENSMUSG00000061374_ENSMUST00000077385|mus_mus|motif|central (ssRNA)
RNA: GGGAGUUCUACAGUCCGACGAUCGCAUCGGUAGGGUCGUUCACCAGUGUGUGAGCGCAGGUGGUUAGCCAAGUUGAAGCGGUGCUUGAAGCCCUUACCGCAUCGAGGACAUGCGUGGGGCUUGAGAGCCGUGUGUCGAGCAAACAACAGAGGAUUGAGCAUCA
B14: chr4:101285476:101285477:+_ENSMUSG00000028528_ENSMUST00000094953|mus_mus|motif|central (ssRNA)
RNA: GGGAGUUCUACAGUCCGACGAUCGAGUGGCUUGAAGUGAGGGCGGUAGGGCUUAUCUGCAAGUAGGUCGCACAUGUAGCCGGAGUACCUCCUGUGAGACGGAGACAGUCCAAUUCCUGGUCGCUUUGCGUAGAGUAAUCGAACCAACAGAGGAUUGAGCAUCA
B15: chr3:151883435:151883436:+_ENSMUSG00000028034_ENSMUST00000166984|mus_hu|motif|central (ssRNA)
RNA: GGGAGUUCUACAGUCCGACGAUCCAUCUCUCCAUUUCUUCCUAUUACAAUGCCAACAGCAAAUCUUGGAAUGGGGACAUCGGUCCCUUCAUUUCCUCCUAUUCUUGACCCAUACUCAUUCCGAACUUCUCUGAAACCGCCUUGCAACAGAGGAUUGAGCAUCA
B16: 115805245_115805365_753_3pUTR_ENSG00000185565_ENST00000490035|human|control|control (ssRNA)
RNA: GGGAGUUCUACAGUCCGACGAUCCAUAGACAUCCACCUUCUGGAUUCGGAGGCUGUAUUCCAGAGAAUGGCGUUUCUCCAGCUCAACCCGUGGGUCCAGAGACCACUUGUCAUGUCCAGCAAAAAUGAUGCCAGAACGGUUCACAACAGAGGAUUGAGCAUCA
B17: chr1:23637546:23637547:-_ENSG00000125944_ENST00000302271|hu_hu|FALSE|FALSE (ssRNA)
RNA: GGGAGUUCUACAGUCCGACGAUCGUAGUAAUCUGGAGGGUAGCCAUAUCCACCUCUCCCCCCACCACGACCCCGACCUCUAAUUGGAGGUGGCAUGCGAGGAGGAGGGUGGUAGUAAUAAUCUUCAUACGCAGUGCUUCUGGACAACAGAGGAUUGAGCAUCA
B18: chrX:17818885:17818886:+_ENSMUSG00000037369_ENSMUST00000044484|mus_mus|FALSE|FALSE (ssRNA)
RNA: GGGAGUUCUACAGUCCGACGAUCAUACCAGGACUGGCCAGAAUUUGGAUCUGCUUCCAAGGACUUCUGGAGAUACUGAAUAGCAUAACUUUCCUUGGUGGCCUUAUCUCCCAGGAGAUCCACAGUGUGAUGCAUCCAACCUAACAACAGAGGAUUGAGCAUCA
B19: chr10:77750680:77750681:-_ENSMUSG00000001211_ENSMUST00000139282|mus_mus|FALSE|FALSE (ssRNA)
RNA: GGGAGUUCUACAGUCCGACGAUCACGGCGGUAUAGGUGCUUGCUGAUGGGCCAGAGGGCCAGUGUGCACAGCUGGGUGAAGUUGAUAAUUAACCCGCUCACCACGAAGACGAAGCCAAUGAGCAGGUGCACCACGAACUGGGUCAACAGAGGAUUGAGCAUCA
B20: chr18:6437031:6437032:-_ENSMUSG00000024240_ENSMUST00000028100|mus_hu|FALSE|FALSE (ssRNA)
RNA: GGGAGUUCUACAGUCCGACGAUCGCAGUACUGUACAGAUAAUUGCUGUAUUCUUAAUUUACAGAUGUUGAUUUUUUUCCUAUUAACAGUAAGAAAAGAAAAAUUGAAGCAUGAGAGAUGAGCAUUGCUGUCAAGUCCCCACAGCAACAGAGGAUUGAGCAUCA
B21: chr16:20683585:20683586:+_ENSMUSG00000045983_ENSMUST00000044783|mus_hu|FALSE|FALSE (ssRNA)
RNA: GGGAGUUCUACAGUCCGACGAUCUAUUGCCUCUGUUAACAUCUUCAGUUUGAACAACUCUCCAAUAAACUUGAUAUUCCCUAAAGAGCGCCGCCGGGCUAUGUCCCGAGCCUCUUCCAGCUCUUCCUUCAGGCGUCCUCGUUCCAACAGAGGAUUGAGCAUCA
B22: 247014174_247014294_5197_CDS_ENSG00000153207_ENST00000391829|human|control|control (ssRNA)
RNA: GGGAGUUCUACAGUCCGACGAUCGACCAAUUUAGUGGGACACAUUAUGUUUUGGCUCACUAAAGGUAUUGUUUCAUGAAUGGACUGUUCCAUUGUAUCUGAAGUAAUUUCUUUACUUCUUGUGUCUUUAAUUACAUCUAGUAACAACAGAGGAUUGAGCAUCA

This experiment has as its target T1, UNK ZnF1-3. As to the kind of experiment: nsRBNS (natural sequence RNA bind-n-seq); RBNS binding buffer (assumed for nsRBNS): 25 mM Tris pH 7.5, 150 mM KCl, 3 mM MgCl2, 0.01% Triton X-100, 500 ug/ml BSA, 20 U/ml SUPERase-In, 4 C; UNK is unkempt and MSI1 is Musashi-1; names of the RNAs are library labels; protein concentration not given here; high values mean tight binding.
On to B1, for which the binding signal came out at 0.614 enrichment R.

The molecule B2 registered a binding signal of 1.67 enrichment R.

In the case of B3, the binding signal turned out to be 0.436 enrichment R.

In turn, B4 gave a binding signal of 0.714 enrichment R.

Turning to B5, the binding signal was determined as 0.294 enrichment R.

With B6, the binding signal worked out at 1.5 enrichment R.

B7: the binding signal is 1.5 enrichment R.

B8 had a binding signal of 0.374 enrichment R.

B9 displayed a binding signal of 1.19 enrichment R.

B10: the binding signal is 0.692 enrichment R.

Molecule B11 came in with a binding signal of 0.63 enrichment R.

For B12, the binding signal is 0.635 enrichment R.

Molecule B13 came in with a binding signal of 1.34 enrichment R.

B14 yielded a binding signal of 0.864 enrichment R.

Molecule B15 showed a binding signal of 0.821 enrichment R.

With B16, the binding signal was 0.723 enrichment R.

With B17, the binding signal worked out at 0.572 enrichment R.

Regarding B18, the binding signal stood at 1 enrichment R.

For the molecule B19, the binding signal was determined as 1.15 enrichment R.

The molecule B20 showed a binding signal of 1.63 enrichment R.

The molecule B21 came in with a binding signal of 0.714 enrichment R.

Molecule B22 returned a binding signal of 0.318 enrichment R.
